Assay results as given in PubChem BioAssay AID1479 (National Center for Advancing Translational Sciences (NCATS), 2009).
The whole screen tested about 280,000 compounds, of which about 820 (0.29%) were called active. This list was built around the results that the source calls inconclusive (neither active nor inactive); the mix of calls is not that of the screen. The call rests on the fitted dose curve; in most records, active means well fitted curve in either direction with a large enough effect; inconclusive means small, poorly fitted or top-dose-only effect; inactive means flat fitted curve, though single readings scatter. Potencies of inconclusive entries are left out as doubtful fits.

Assay: Total Fluorescence Counterscreen for Inhibitors of the Interaction of Thyroid Hormone Receptor and Steroid Receptor Coregulator 2
Conditions: TRb/SRC2 Texas Red total fluorescence interference; series mostly up to 106 µM
Method in brief: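 Human TRb ligand-binding domain at 0.6 uM with 20 nM Texas Red SRC2 peptide in Tris buffer containing 1 uM T3 and 5% DMSO, incubated with compound 5 h at ambient temperature. Total fluorescence (555/632 nm) calculated as parallel + 2 × perpendicular.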
Potency means the concentration at half of the fitted maximal effect; tags describe the fitted curve by direction and shape or compound fluorescence and quenching.

Structure (SMILES)	Potency
O=C(CN1C(=O)/C(=C/c2cccc(Br)c2)SC1=S)Nc1cccnc1	inactive
C/C(=C\C(C)CC(C)CC(C)C)C1CC(=O)OC1=O (stereo not drawn)	inactive
O=C(O)C(Cc1ccccc1)N1C(=O)/C(=C/C=C/c2ccco2)SC1=S (stereo not drawn)	inconclusive [quencher, full curve]
COc1ccc(/C=N/NC(=O)CCc2n[nH]c(=O)[nH]c2=O)cc1OC	inconclusive [falling, partial curve, poor fit]
Cc1cc(C)c(S(=O)(=O)NCc2csc(-c3ccccc3)n2)c(C)c1	inactive
Cc1ccccc1C(=O)NC1(C(F)(F)F)N=C(c2ccccc2)N(Cc2ccccc2)C1=O (stereo not drawn)	active: 10 µM [quencher]
CN1/C(=C\C(=S)Nc2ccccc2)C(C)(C)c2ccccc21	inconclusive [fluorescent, partial curve]
Cc1cccc(S(=O)(=O)c2c(N)n(/N=C/c3ccco3)c3nc4ccccc4nc23)c1	inactive
CCOC(=O)C1CCCN(C(=O)CCS(=O)(=O)c2cc3c(cc2Cl)NC(=O)CO3)C1 (stereo not drawn)	inconclusive [falling, full curve, poor fit]
CCOC(=O)C1CCN(C(=O)c2ccc3c(c2)sc2nc(-c4ccc(C)cc4)cn23)CC1	inconclusive [falling, full curve, poor fit]
COc1ccc(Cn2ccc3nc(C)c(C(=O)N4CCN(c5ccccc5F)CC4)cc3c2=O)cc1	inconclusive [quencher, partial curve]
CCN1CCN(C(=O)c2ccc(CSc3ccc(C)cc3)cc2)CC1	inactive
CCOC(=O)OC(C)OC(=O)C1N2C(=O)C(NC(=O)C(N)c3ccccc3)C2SC1(C)C (stereo not drawn)	inconclusive [falling, full curve, poor fit]
COc1ccc(OC)c(/C=C(\C#N)c2nc3ccccc3c(=O)[nH]2)c1	inconclusive [falling, partial curve, poor fit]
CCSc1ncc(Cl)c(C(=O)N(Cc2ccccc2)Cc2ccco2)n1	inconclusive [falling, partial curve, poor fit]
O=C(CSc1nc(-c2ccccc2)nc2c1Cc1ccccc1O2)Nc1ccc(C(=O)O)cc1	inconclusive [quencher, partial curve]
COc1ccc2ccc3c(c2c1)N=C[C@]1(O3)N(C)c2ccccc2C1(C)C	inconclusive [quencher, partial curve]
COc1ccc2c(c1)-c1nc(NC(=O)c3cccs3)sc1CC2	inactive
CC(=O)[C@]1(O)Cc2c(O)c3c(c(O)c2[C@@H](O[C@H]2C[C@H](N)[C@H](O)[C@H](C)O2)C1)C(=O)c1c(O)cccc1C3=O	active: 44.7 µM [fluorescent]
O=C(COC(=O)CC1c2ccccc2CCN1S(=O)(=O)c1ccc(F)cc1)Nc1ccccc1 (stereo not drawn)	inconclusive [falling, full curve, poor fit]
O=C(O)c1cccc(NC(=O)c2cccc(S(=O)(=O)Nc3cccc(F)c3)c2)c1	active: 0.316 µM [quencher]
CCc1nnc2c3ccccc3nc(N3CCN(c4cc(Cl)ccc4C)CC3)n12	inconclusive [falling, partial curve, poor fit]

Structure (SMILES)	Potency
CC(=O)Nc1ccc2nc(SCCOc3ccccc3Cl)sc2c1	inactive
COC(=O)c1cc2sccc2n1Cc1nc(-c2ccc(C)cc2)oc1C	inconclusive [quencher, full curve]
Cc1ccccc1Nc1scc(-c2ccc(Cl)cc2)[n+]1-c1ccccc1C	inactive
COc1ccccc1N1CCN(C(=O)COc2ccccc2C#N)CC1	inconclusive [falling, full curve, poor fit]
CCOc1ccc(CNC(=O)c2ccc3c(c2)N(Cc2ccccc2)CCS3)cc1	inconclusive [quencher, full curve]
COc1ccc(S(=O)(=O)Nc2ccccc2C(=O)NC(C)C)cc1OC	inactive
N#CC1=C(N)N2C(=C(C#N)C1c1ccc(Br)cc1)Nc1ccccc12 (stereo not drawn)	inactive
CC(C1CCCC(=O)C1)[N+](=O)[O-] (stereo not drawn)	inactive
CN(C)CCCSc1nc(-c2ccccc2)nc2c1CCC2	inconclusive [falling, partial curve, poor fit]
O=C(COc1ccccc1Cl)Nc1ccc2nc(SCC(=O)N3CCOCC3)sc2c1	inconclusive [falling, partial curve, poor fit]
COc1cc(OC)cc(C(=O)Nc2cccc(-c3cn4ccsc4n3)c2)c1	inconclusive [quencher, full curve]
O=C1Nc2ccccc2/C1=N\N=C\c1ccc(O)c(O)c1	inactive
CN(C)c1ccc(C(=O)NCc2ccc3c(c2)CCN3C(=O)c2ccc(Cl)cc2)cc1	inconclusive [falling, full curve, poor fit]
O=C(COC(=O)Cc1ccsc1)NCc1ccc(Cl)cc1	inconclusive [falling, full curve, poor fit]
CCOc1ccc(NC(=O)c2c(NCc3cccs3)sc3c2CCC(C)C3)cc1 (stereo not drawn)	active: 355 µM [quencher]
Cc1ccc(NC(=O)C2CCN(S(=O)(=O)c3ccc4c(c3)CCCC(=O)N4)CC2)cc1N(C)C	inconclusive [falling, partial curve, poor fit]
O=C(NCc1cccnc1)c1ccc(-c2ccccc2[N+](=O)[O-])o1	inconclusive [rising, single point]
Cc1ccc(-n2c(=O)c3oc4ccccc4c3n(Cc3cccc(F)c3)c2=O)cc1C	inactive
CC1(C)CC(=O)c2c(n(S(=O)(=O)c3ccccc3)c3ccc(NS(=O)(=O)c4ccccc4)cc23)C1	inconclusive [falling, partial curve, poor fit]
CCCSc1nnc(NC(=O)Nc2ccc(F)cc2)s1	inactive
CC(=O)NC(NC(=S)Nc1ccc(N=Nc2ccccc2C)cc1C)C(Cl)(Cl)Cl (stereo not drawn)	inactive
